Data as given in PubChem BioAssay AID1963983 (Molecular Pharmacology Branch, DTP, NCI, 2024).
Not every entry of the source has a single result; some have several. Only these are listed. An entry can have further records. Values given together are repeats across runs, samples, wells, individuals or studies.

System: 186277-243-T-J2-PDC multi-cell spheroid viability
Assay: Anticancer human tumor 186277-243-T-J2-PDC patient-derived colon adenocarcinoma cell line growth inhibition [PI3K]
Details: for IC50: compound alone; for viability, T/C: stronger effect = lower value
Source text: Combinatorial screen of targeted agents with the PI3K inhibitors inavolisib, alpelisib, duvelisib, and copanlisib in multi-cell type tumor spheroids
A high-throughput screen of multi-cell type tumor spheroids was designed to identify active combinations of targeted small molecules and PI3K pathway inhibitors. Complex spheroids include a stromal component modeled by human endothelial cells (HUVEC) and fibroblasts modeled by human mesenchymal stem cells (MSCs). The concentration ranges selected for each drug and investigational agent were based upon clinically achievable concentrations if the clinical Cmax of the agent was known.
Compounds. The drugs and investigational agents: inavolisib (NSC800729), alpelisib (NSC765974), duvelisib (NSC772469), copanlisib (NSC816437), ipatasertib (NSC767898), afuresertib (NSC778305), talazoparib (NSC767125), sapanisertib (NSC764658), selumetinib (NSC741078), tovorafenib (DAY101, NSC766906), vemurafenib (NSC761431), ravoxertinib (NSC781343), sotorasib (NSC818433), MRTX1133 (NSC 836407), abemaciclib (NSC 768073), palbociclib (NSC758247), venetoclax (NSC 766270), SY5609 (NSC837396), enzalutamide (NSC755605), and darolutamide (NSC825331), were obtained from the National Cancer Institute (NCI) Developmental Therapeutics Program Chemical Repository. The FDA-approved anticancer drug set is available from the NCI Developmental Therapeutics Program. […] The stock solutions were prepared in dimethyl sulfoxide (DMSO, Sigma-Aldrich, St. Louis, MO, cat. D2650) at 800-fold the tested concentration and stored at -70 degrees C prior to their use. All drugs and investigational agents were tested over a range starting from a high concentration at or near the clinical Cmax and decreasing in half-log increments. If the clinical Cmax for an agent had not been determined, the highest concentration tested was 10 microM.
Cell Culture. All cells were maintained in an incubator at 37 degrees C and 5% CO2 with 95% humidity. The PDC lines were cultured according to standard operating procedures established by the NCI PDMR (https://pdmr.cancer.gov/sops/default.htm). All PDCs were thawed and cultured in Matrigel-coated flasks prepared with a working solution of 1X Ham's F-12 nutrient mix, without supplementation (Invitrogen, Waltham, MA, cat. 11765054), 100 U/mL penicillin-streptomycin (Invitrogen, cat. 15140122), and 2.5% Matrigel (Corning Inc., Corning, NY, cat. 354248) for the first three passages. The 354836-022-R-J1-PDC, 475296-252-R-J1-PDC, and 997726-040-R-J2-PDC lines were cultured in 6A media, which includes advanced DMEM/F-12 (Thermo Fisher Scientific, cat. 12634028), 10 mM HEPES (Thermo Fisher Scientific, cat. 15630080), 1X GlutaMAX supplement (Thermo Fisher Scientific, cat. 35050061), 0.1 mg/mL primocin (InvivoGen, San Diego, CA, cat. ant-pm-2), 10% defined fetal bovine serum, heat inactivated (HyClone Laboratories Inc., Logan, UT, cat. SH30070.03HI), 50% L-WRN conditioned media (ATCC, cat. CRL-3276), 1.25 mM N-Acetyl-L-cysteine (Sigma-Aldrich, cat. A9165), 10 mM nicotinamide (Sigma-Aldrich, cat. N0636), 1X B-27 supplement (Thermo Fisher Scientific, cat. 17504044), 1X N-2 supplement (Thermo Fisher Scientific, cat. 17502048), and 10 microM Y-27632 dihydrochloride (Tocris Bioscience, Bristol, United Kingdom, cat. 1254). The 624824-186-R-J2-PDC line was cultured in 6C/Colon 1B media, which includes all 6A media components plus 50 ng/mL human EGF recombinant protein (Thermo Fisher Scientific, cat. PHG0311). […]
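Also: spheroids exposed to compounds for seven days before viability reading.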
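For viability, T/C in this document: 100% = DMSO vehicle control viability.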

Q: For `CC1(C)CCC(CN2CCN(c3ccc(C(=O)NS(=O)(=O)c4ccc(NCC5CCOCC5)c([N+](=O)[O-])c4)c(Oc4cnc5[nH]ccc5c4)c3)CC2)=C(c2ccc(Cl)cc2)C1`, which IC50 is on record?
A: 4.15 µM, 4.45 µM, 5.05 µM, > 10 µM

Q: And the viability, T/C (compound alone 3.16 µM)?
A: 64, 68.8, 85.3, 103%

Q: And the viability, T/C (compound alone 10 µM)?
A: 4.93, 5.53, 4, 102%

Q: Which viability, T/C (compound alone 0.0316 µM) does the source give for `Cn1ncnc1[C@H]1c2n[nH]c(=O)c3cc(F)cc(c23)N[C@@H]1c1ccc(F)cc1` here?
A: 109, 94.7, 114, 87%

Q: `CC(C)n1nc(-c2ccc3oc(N)nc3c2)c2c(N)ncnc21` was tested. Which viability, T/C (compound alone 0.01 µM) did it give?
A: 78.9, 106, 99.6, 96.4%

Q: Which results are given for `CC(Nc1ccc2c(c1)OCCn1cc(N3C(=O)OCC3C(F)F)nc1-2)C(N)=O` (stereo not given)?
A: viability, T/C (compound alone 0.0316 µM): 96.6, 116, 98.5, 118, 96.1, 88.7, 107, 99.6%; IC50 (run of 05/08/2023): > 1 µM, 961 nM, 997 nM, 932 nM

Q: `CC(=O)c1c(C)c2cnc(Nc3ccc(N4CCNCC4)cn3)nc2n(C2CCCC2)c1=O` was tested. Which viability, T/C (compound alone 0.0316 µM) did it give?
A: 123, 121, 100, 94.1%

Q: What about the viability, T/C (compound alone 0.1 µM) of the same compound?
A: 165, 120, 113, 117%

Q: How did the viability, T/C (compound alone 0.0316 µM) turn out when `Cc1nc(NC(=O)N2CCCC2C(N)=O)sc1-c1ccnc(C(C)(C)C(F)(F)F)c1` (stereo not given) was run?
A: 107, 96.2, 117, 94.5, 103, 95.1, 87.5, 95.8%
